Results reported in a collection of fitness landscapes (doi:10.1016/j.celrep.2020.107928).
Whole data set: some 81,000 sequences, median “one-hybrid fitness for binding parS DNA” near -0.17, cut for the highest 2% near 0.51. This is one part of the list.

B1: Caulobacter ParB omega fusion; a variant is named by its letters at X, in order, B8GW30 (parent)
chain: MESVVVGEPGMSEGRRGLGRGLSALLGEVDAAPAQAPGEQLGGSREAPIEILQRNPDQPRRTFREEDLEDLSNSIREKGVLQPILVRPSPDTAGEYQIVAGERAWRAAQRAGLKTVPIMVRELDDLAVLEIGIIENVQRADLNVLEEALSYKVLMEKFERTQENIAQTIGKSXSHVANXMRLLXLPDEVQSYLVSGELTAXHARAIAAAADPVALAKQIIEGGLSVRETEALARKAPNLSAGKSKGGRPPRVKDTDTQALESDLSSVLGLDVSIDHRGSTGTLTITYATLEQLDDLCNRLTRGI

Variants of: B1
Assay: one-hybrid fitness for binding parS DNA (scaled: cognate 1, non-cognate 0); higher = stronger binding
Settings: with parS DNA site
Method in brief: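 Fitness is the rescaled log change in variant-to-wild-type read ratio, measured by Illumina sequencing of plasmids before and after bacterial one-hybrid selection. The scale puts cognate at 1 and non-cognate at 0. Selection of Caulobacter ParB libraries, four specificity codons randomised, took place in E. coli USO with a HIS3 reporter, site 19 bp from the promoter, over 48 hours at 37°C on M9-minus-histidine with 0.1 mM IPTG and 5 mM 3-AT.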

Variant | one-hybrid fitness for binding parS DNA
ERRM | ≤ 0.2
LLVR | ≤ 0.2
YALM | ≤ 0.2
YTDR | ≤ 0.2
TRKF | ≤ 0.2
HELP | ≤ 0.2
VRAR | ≤ 0.2
PFTT | ≤ 0.2
KSML | ≤ 0.2
AGVY | ≤ 0.2
RYSD | ≤ 0.2
AGDC | ≤ 0.2
STTQ | ≤ 0.2
SMTG | ≤ 0.2
AQLV | ≤ 0.2
RKLW | ≤ 0.2
SDAT | ≤ 0.2
CLGK | ≤ 0.2
NPGL | ≤ 0.2
PSDR | ≤ 0.2
EMMK | ≤ 0.2
PVLT | ≤ 0.2
YWNR | ≤ 0.2
SNES | ≤ 0.2

Variant | one-hybrid fitness for binding parS DNA
DTDG | ≤ 0.2
CECT | ≤ 0.2
TTRY | ≤ 0.2
QDKG | ≤ 0.2
TKPS | ≤ 0.2
DAVT | ≤ 0.2
RGIR | ≤ 0.2
MQPL | ≤ 0.2
LSAC | ≤ 0.2
QHDG | ≤ 0.2
VPFM | ≤ 0.2
RRPA | 0.574
AQLP | ≤ 0.2
EIWR | ≤ 0.2
RDCR | ≤ 0.2
RQAA | 0.571
KAYV | ≤ 0.2
THKK | ≤ 0.2
NPVS | ≤ 0.2
NMTT | ≤ 0.2
RKMR | ≤ 0.2
YMVW | ≤ 0.2
WHDS | ≤ 0.2
ASHC | ≤ 0.2

Variant | one-hybrid fitness for binding parS DNA
SCYE | ≤ 0.2
FGAG | ≤ 0.2
EIVW | ≤ 0.2
SVTC | ≤ 0.2
ECNW | ≤ 0.2
MYQC | ≤ 0.2
QNHS | ≤ 0.2
QYMY | ≤ 0.2
MKKS | ≤ 0.2
HTLY | ≤ 0.2
KWPV | ≤ 0.2
DRQC | ≤ 0.2
PMTF | ≤ 0.2
IWSI | ≤ 0.2
YAEN | ≤ 0.2
GNNY | ≤ 0.2
FIVL | ≤ 0.2
KSGT | ≤ 0.2
MIQS | ≤ 0.2
KTYI | ≤ 0.2
SMCC | ≤ 0.2
FFCS | ≤ 0.2
TQYT | ≤ 0.2
AHVV | ≤ 0.2

Variant | one-hybrid fitness for binding parS DNA
VDLL | ≤ 0.2
PTKR | ≤ 0.2
VLAI | ≤ 0.2
SRDS | ≤ 0.2
YETY | ≤ 0.2
DRVS | ≤ 0.2
KTWV | ≤ 0.2
LIGC | ≤ 0.2
PTAS | ≤ 0.2
VQLC | ≤ 0.2
IASR | ≤ 0.2
ERQV | ≤ 0.2
MFTR | ≤ 0.2
VVGR | ≤ 0.2
VRSR | ≤ 0.2
NSTR | ≤ 0.2
SLDD | ≤ 0.2
KFYR | ≤ 0.2
IGNL | ≤ 0.2
DWGL | ≤ 0.2
HGAS | ≤ 0.2
DLMS | ≤ 0.2
VGKG | ≤ 0.2
RFTQ | ≤ 0.2

Variant | one-hybrid fitness for binding parS DNA
HKLD | ≤ 0.2
EHVN | ≤ 0.2
PWWR | ≤ 0.2
IVMS | ≤ 0.2
SRCG | ≤ 0.2
LHSW | ≤ 0.2
CHPV | ≤ 0.2
QHLH | ≤ 0.2
ARMD | ≤ 0.2
MLGT | ≤ 0.2
RISQ | ≤ 0.2
LCKS | ≤ 0.2
ERRE | ≤ 0.2
SFFN | ≤ 0.2
WQKE | ≤ 0.2
LGRL | ≤ 0.2
RYWG | 0.89
RCRR | ≤ 0.2
LDDF | ≤ 0.2
QDDS | ≤ 0.2
DKAT | ≤ 0.2
KVGK | ≤ 0.2
KKSN | ≤ 0.2
CTRM | ≤ 0.2

Variant | one-hybrid fitness for binding parS DNA
PCMM | ≤ 0.2
AKLE | ≤ 0.2
QNRA | ≤ 0.2
PTMI | ≤ 0.2
FERR | ≤ 0.2
PCLN | ≤ 0.2
GAQT | ≤ 0.2
RCMD | 0.215
LILA | ≤ 0.2
QWHL | ≤ 0.2
RGIN | ≤ 0.2
PFYR | ≤ 0.2
EATY | ≤ 0.2
NTRR | ≤ 0.2
HRCA | ≤ 0.2
QWNG | ≤ 0.2
KMGN | ≤ 0.2
YSCP | ≤ 0.2
QRPV | ≤ 0.2
SDPS | ≤ 0.2
TDMG | ≤ 0.2
QSYV | ≤ 0.2
VTDC | ≤ 0.2
TPNK | ≤ 0.2

Variant | one-hybrid fitness for binding parS DNA
TIHK | ≤ 0.2
VTHV | ≤ 0.2
AGAI | ≤ 0.2
LNLI | ≤ 0.2
KVRH | ≤ 0.2
QWMD | ≤ 0.2
RTDC | 0.887
IRET | ≤ 0.2
WRRS | ≤ 0.2
IHIL | ≤ 0.2
TWTK | ≤ 0.2
RALY | 0.48
AAKV | ≤ 0.2
SGFH | 0.283
QSNS | ≤ 0.2
LHRY | ≤ 0.2
ITKK | ≤ 0.2
DKPY | ≤ 0.2
PLVA | ≤ 0.2
VMPC | ≤ 0.2
SSNY | ≤ 0.2
LYDF | ≤ 0.2
HVFP | ≤ 0.2
RFIM | ≤ 0.2

Variant | one-hybrid fitness for binding parS DNA
RLSK | ≤ 0.2
PVTT | ≤ 0.2
YTKC | ≤ 0.2
MRLL | ≤ 0.2
THSD | ≤ 0.2
GLSD | ≤ 0.2
SSRR | ≤ 0.2
TCWC | ≤ 0.2
LVWC | ≤ 0.2
NTIS | ≤ 0.2
VAGS | ≤ 0.2
TKER | ≤ 0.2
KWVR | ≤ 0.2
NDVD | ≤ 0.2
SAPW | ≤ 0.2
QPER | ≤ 0.2
YVED | ≤ 0.2
GEWR | ≤ 0.2
HEQT | ≤ 0.2
HENC | ≤ 0.2
LNSA | ≤ 0.2
DVSS | ≤ 0.2
APIV | ≤ 0.2
SMLG | ≤ 0.2

Variant | one-hybrid fitness for binding parS DNA
TIFS | ≤ 0.2
PYTY | ≤ 0.2
GYVS | ≤ 0.2
KEPN | ≤ 0.2
EARW | ≤ 0.2
DQTL | ≤ 0.2
SWWY | ≤ 0.2
WSKK | ≤ 0.2
SCTW | ≤ 0.2
TRMV | ≤ 0.2
MILC | ≤ 0.2
LSNH | ≤ 0.2
KMQL | ≤ 0.2
SIAR | ≤ 0.2
RFPQ | ≤ 0.2
LYRS | ≤ 0.2
RLQD | ≤ 0.2
VHTS | ≤ 0.2
QVAT | ≤ 0.2
RALT | 0.888
ARPE | ≤ 0.2
ENIE | ≤ 0.2
DYSV | ≤ 0.2
HNQM | ≤ 0.2

Variant | one-hybrid fitness for binding parS DNA
RDES | ≤ 0.2
LCDS | ≤ 0.2
QADK | ≤ 0.2
KWSS | ≤ 0.2
NCPW | ≤ 0.2
TPSY | ≤ 0.2
TTTE | ≤ 0.2
WQCS | ≤ 0.2
HFFC | ≤ 0.2
TPSE | ≤ 0.2
FLLT | ≤ 0.2
VQKD | ≤ 0.2
KLTC | ≤ 0.2
EDSN | ≤ 0.2
GYSS | ≤ 0.2
AHHC | ≤ 0.2
VPTF | ≤ 0.2
DVLT | ≤ 0.2
QLYA | ≤ 0.2
SEQA | ≤ 0.2
DTNY | ≤ 0.2
HPIG | ≤ 0.2
WADR | ≤ 0.2
WSLS | ≤ 0.2

Variant | one-hybrid fitness for binding parS DNA
KGSV | ≤ 0.2
RDDF | ≤ 0.2
KMTS | ≤ 0.2
IPCW | ≤ 0.2
LERA | ≤ 0.2
AALC | ≤ 0.2
GTRP | ≤ 0.2
TWAD | ≤ 0.2
ITIS | ≤ 0.2
KHGC | ≤ 0.2
LLMF | ≤ 0.2
IRVN | ≤ 0.2
CPYG | ≤ 0.2
SFES | ≤ 0.2
VHYI | ≤ 0.2
NLQQ | ≤ 0.2
HRRC | 0.41
STIK | ≤ 0.2
SDKI | ≤ 0.2
AAYV | ≤ 0.2
TKVG | ≤ 0.2
QLCA | ≤ 0.2
HLWT | ≤ 0.2
VGCR | ≤ 0.2

Variant | one-hybrid fitness for binding parS DNA
NCTH | ≤ 0.2
RQYC | 0.94
QRGV | ≤ 0.2
GSPC | ≤ 0.2
YSLV | ≤ 0.2
ANKN | ≤ 0.2
KIQL | ≤ 0.2
EEIR | ≤ 0.2
GNLK | ≤ 0.2
TLYK | ≤ 0.2
AAQD | ≤ 0.2
IRIS | ≤ 0.2
HPAM | ≤ 0.2
IMGR | ≤ 0.2
CMIN | ≤ 0.2
RGPQ | ≤ 0.2
SRAW | ≤ 0.2
KTQV | ≤ 0.2
EADT | ≤ 0.2
RCPP | ≤ 0.2
SQVA | ≤ 0.2
HACR | ≤ 0.2
TKNM | ≤ 0.2
RGVD | ≤ 0.2

Variant | one-hybrid fitness for binding parS DNA
NYTL | ≤ 0.2
CKQF | 0.29
DQPS | ≤ 0.2
AEPS | ≤ 0.2
YQPW | ≤ 0.2
TKDI | ≤ 0.2
MAES | ≤ 0.2
RYNA | 0.58
PTWY | ≤ 0.2
RHAN | 0.371
QIHM | ≤ 0.2
VPED | ≤ 0.2
QPIL | ≤ 0.2
IRKS | ≤ 0.2
SEMP | ≤ 0.2
AITW | ≤ 0.2
KHHT | ≤ 0.2
RSEI | ≤ 0.2
